Where a name gives a salt, the structure may show the parent alone. The source holds more than one record for some entries. This list holds those alone. An entry can have further records. The values listed for one entry appear to be repeats (runs, samples, wells or individuals).

The format of this data set is physicochemical. The conditions noted are these: storage, ambient condition (temperature and humidity) or closed cap; sodium salt.

On to `Cc1c(-c2ccc(-c3ccccc3F)cc2)nc2ccc(F)cc2c1C(=O)O` [Pattern B, brequinar sodium salt], for which the “Stability of the polymorphic form (in words)” value (shortened to “Stability”) was “hydrate KF 4.8% unstable, convert to [table] and unstable [text]”.

In the case of `Cc1c(-c2ccc(-c3ccccc3F)cc2)nc2ccc(F)cc2c1C(=O)O` [Pattern E, brequinar sodium salt], the “Stability” value is “KF 8.8%), 2, unstable, convert to [table] and unstable [text]”.

On to `Cc1c(-c2ccc(-c3ccccc3F)cc2)nc2ccc(F)cc2c1C(=O)O` [Pattern F, brequinar sodium salt], for which the “Stability” value is “KF 7.2%), 6, unstable, convert to [table] and unstable [text]”.

Turning to `Cc1c(-c2ccc(-c3ccccc3F)cc2)nc2ccc(F)cc2c1C(=O)O` [Pattern G, brequinar sodium salt], the “Stability” value was “^1HNMR, KF 15.3%), unstable, convert [table] and unstable [text]”.

The record behind these values is patent publication US20210300873A1 (Clear Creek Bio, Inc., priority 2020, published 2021).
